The source gives no read counts; variants with many changes may rest on few reads.
B1: LINE1-mini (parent)
chain: GGCAGAGCUCAACACAGCGUGGCAAAGUGGCUGUGGCUAGACUGCC

Variants of: B1
Test: self-cleavage, relative activity (ratio to wild type); higher = more cleavage; in vitro, sequencing; the parent is a self-cleaving ribozyme
With GGCAGAGCUAAUCACAGCGCGGCAAAGUGGCAGUGGCUAGACUGCU [C10A A12U U20C U32A C46U] the self-cleavage was 0.
Variant GGCAUAGCUCAACAGAGCGUGGCCAAGUGGCUGUGGGUAGACUGCC [G5U C15G A24C C37G] has a self-cleavage of 0.02.
GGCAGAGCUCAUCAUACCGAGGCAAAGUGGCUGUGGCUAGACUGCG [A12U C15U G17C U20A C46G] showed a self-cleavage of 0.02.
Work on GGCAGAGCUCAACCCAUCGUGGAACAGUGGCUGUGGCUAGACUGCC [A14C G17U C23A A25C] yielded a self-cleavage of 0.04.
GGCAGAGCUUAACACUGCGUGGCAAAGUGGCUGUGGCUAGCCUGCC [C10U A16U A41C] showed a self-cleavage of 0.02.
In the case of GACAGAGUUCAACACAGCGUGGCAACGUGACUGUGGCUAGACUGCC [G2A C8U A26C G30A], the self-cleavage is reported as 0.71.
GAGAGAGCUCAACACAGCGUGGCAAAGUUGCUGUGGCUAGACUGCC [G2A C3G G29U] showed a self-cleavage of 0.94.
In the case of UGCAGAGCUCAACACAGGGUGGCAAAGUGGCUGUGGCUAGAAUGCC [G1U C18G C42A], the self-cleavage is reported as 0.
Variant GGAAGAGCUCAACACAGCGAGGCAAAGUGGCUGUUGCUAGACUGGC [C3A U20A G35U C45G] has a self-cleavage of 0.05.
GGGGGAGCUCAACACAGCGUGGCAAAGUGGCUGUGUCUAGACUGCC [C3G A4G G36U] showed a self-cleavage of 0.09.
In the case of GGCAGAGCUCAACCCGGCGUGGCAAAGUGGCUGUGGCUAGAAUGCC [A14C A16G C42A], the self-cleavage is reported as 0.07.
With GGCAAAGCUCAACACAGCGUUGCAUAGUGGCUGUGGCUAGACUGAU [G5A G21U A25U C45A C46U] the self-cleavage was 0.22.
With GGCGGAGCUCAGCACAGUGUGCCAAAGUGGCUGCGGCUAGACUGGC [A4G A12G C18U G22C U34C C45G] the self-cleavage was 0.01.
In the case of GACAGAGCUAAACACAGCGUGGCAAAGUGGCUGUGGCUAAACUGCC [G2A C10A G40A], the self-cleavage is reported as 0.04.
GGCAGAAAUGAACACAGCGUGGCAAGGUGGCUGUGGCUAGACUGGG [G7A C8A C10G A26G C45G C46G] gave a self-cleavage of 0.01.
In the case of UGCAGAGGUCAACACAGCGUGGCAAAGUGGCUAUGGCUAGACUGCG [G1U C8G G33A C46G], the self-cleavage is reported as 0.03.
Variant GGCAGAGAUCAACACAGCGUGCCAAAGUGGCUGUGGCUAGAGUGCC [C8A G22C C42G] has a self-cleavage of 0.06.
For GGGAGAGCUCAACACAGCCCGACAAAGUGGCUGUGGCUAGACUGCC [C3G G19C U20C G22A], the self-cleavage was 0.22.
GGCAAAGCUCAACACAGCGUGGCAAAGGGGCUGUGCCUAGACUGCC [G5A U28G G36C] gave a self-cleavage of 0.03.
For GGCAGAGCUCCACACAGCGUGGCAAAGUGGCUGUGGCUAAAGUGCC [A11C G40A C42G], the self-cleavage was 0.03.
With GGCAGAGCUCAACACAGCGUGGCAAACUGGCUUUGGCUCGACUGCC [G27C G33U A39C] the self-cleavage was 0.02.
AGCACAGCUCAACACAGCGUGGAAAAUUGUCUGUGGCUAGACUGCC [G1A G5C C23A G27U G30U] showed a self-cleavage of 0.04.
With GCCAGAGCUCAACACUGCGUGGCAAGGUGUCUGUGGCCAGACUGCC [G2C A16U A26G G30U U38C] the self-cleavage was 0.1.
Variant GGCAGAGCUAAACACAGCUAGGCAAAGUGACUGUGGCUAGACUGCC [C10A G19U U20A G30A] has a self-cleavage of 0.06.
GGCACAGCUCAACACAGCCUAGCAAAGUGGCUGUCGCUAGCCUGCC [G5C G19C G21A G35C A41C] showed a self-cleavage of 0.04.
Variant GGCAGCGCUCAACACAGCGUGGGAAAAUGGCUGUGGCUAGACUCCC [A6C C23G G27A G44C] has a self-cleavage of 0.25.
GGCAGAGCUCAACACAGUGUGGCAAAGUGUCUGUCGCUACCCUGCC [C18U G30U G35C G40C A41C] gave a self-cleavage of 0.06.
Variant GGCAUAGCUCAACAUAGAGUGGCAAAGCGGCUGUGGCUACACUGCC [G5U C15U C18A U28C G40C] has a self-cleavage of 0.08.
Work on GGCAGAGCUGAACACAGCGUGGCAAAAUGGCAGUCUCUAGACUGCC [C10G G27A U32A G35C G36U] yielded a self-cleavage of 0.01.
In the case of GGCAGAGCUCCACCCAGCAUGGCGAAGUGGCUGUGGCUAGACUGCC [A11C A14C G19A A24G], the self-cleavage is reported as 0.03.
Work on AUCAGAGGUCAACACAGCGUGACAAAGUUGCUGUAGCUAGACUGCC [G1A G2U C8G G22A G29U G35A] yielded a self-cleavage of 0.23.
For GGAAGAGCUCAACACAGAGUGGCAAAGUGGCUGUGGCUACACUGCC [C3A C18A G40C], the self-cleavage was 0.03.
Variant GGCAGAGCUCAACACAGCGUGGCAAAGUUGAUGUGCCUAGACUUCC [G29U C31A G36C G44U] has a self-cleavage of 0.02.
Work on GGUAGAGCUCAACACAGCUUGGCAAAGUGGCUGUGGCUAGACUGCU [C3U G19U C46U] yielded a self-cleavage of 0.11.
GGCAGAGCACAACACAGCGUGGCAAAGUGGCUGUACCUAGACUGCU [U9A G35A G36C C46U] showed a self-cleavage of 0.19.
With GGCAUAGCUCAACACAGCGUGGCAUAGUUGCUGUGGCUAGACUGCC [G5U A25U G29U] the self-cleavage was 0.24.
AGCAGAGCUCAACACAGCGUGGGAAAGUGCCUGCUGCUAGACUGCC [G1A C23G G30C U34C G35U] gave a self-cleavage of 0.02.
In the case of GGCAGAGCUCAACCCUGCGUGGCAAAGUGGCUGUGGCUAGUCUGCC [A14C A16U A41U], the self-cleavage is reported as 0.04.
Variant GGCAGGGCUCAACACAGCGUGGCAAAGUGCCUGUGGAUAGACUGCC [A6G G30C C37A] has a self-cleavage of 0.07.
In the case of GGCAGGGCUGAACACAGCGUGGCAACUUGGCUGUGGCUAGACUGAC [A6G C10G A26C G27U C45A], the self-cleavage is reported as 0.01.
Work on GACAGGGCUCGAUUGAGCGUGGCAAAGUGGCUGUGGCUAGACUGCC [G2A A6G A11G C13U A14U C15G] yielded a self-cleavage of 0.01.
Work on AGCAGAGCUCAACACAGCGUGGCAAAGUAGCUGUCGCUCGACUGCC [G1A G29A G35C A39C] yielded a self-cleavage of 0.08.
Variant GGCAGAGCUCAACACAGCGUGGCAAAGGGUCUCUGGCUAGACUGGC [U28G G30U G33C C45G] has a self-cleavage of 0.01.
In the case of GGCAGAGCUCAACACAGCCUGGCUAAGUGGCCGUGGCUAGACUGCC [G19C A24U U32C], the self-cleavage is reported as 0.08.
Work on GGCAGAGCUCAACACAGCUAGGAAAAGUGGCUGUGGCUAGACUGCC [G19U U20A C23A] yielded a self-cleavage of 0.3.
GGCAGAGCUCAACACAGCGUGGCAAAGUGGCUGUGGAUAGACUCGC [C37A G44C C45G] gave a self-cleavage of 0.
For GGCAGAGUUCAACACAGCGUGGCAAAGUCGCUGUGACUAGACUGCC [C8U G29C G36A], the self-cleavage was 0.12.
GGCAGAGCUAAACCCAGCGUGGCAAAGUCGCUGUGGCUAGUAUACA [C10A A14C G29C A41U C42A G44A C46A] gave a self-cleavage of 0.
GGCAAAGCUCUACACAGCGUGGCAAAGUGCCUGUGGCUAGAGUGCU [G5A A11U G30C C42G C46U] showed a self-cleavage of 0.01.
Work on GGCCGAGCUCAACACAGCGUGGCAAAGCGGCGGUGGCUAUACUACC [A4C U28C U32G G40U G44A] yielded a self-cleavage of 0.1.
In the case of GGCAGACCUCAACAAAGCGUGGUAAAGUGGCUGUGGCUAGACUGCC [G7C C15A C23U], the self-cleavage is reported as 0.05.
For GGCAGAGCUCAACACAGCGUGGCAAAUUGGAUGUGGGUAGACUGCC [G27U C31A C37G], the self-cleavage was 0.02.
Variant GGCAGAGCGCAACACAGCAUGCCAAAGUGGCUGUGGCUAGACUGCC [U9G G19A G22C] has a self-cleavage of 0.05.
For GGCAGAGCUCAACACAGGAUGGCAAAGUGGCUGUGGGUAGAAUGCC [C18G G19A C37G C42A], the self-cleavage was 0.05.
With GGCAGAGCGCAACACAGCUUGGCAAAGUGGCUGUGGCUAGACUGGC [U9G G19U C45G] the self-cleavage was 0.05.
With GGCACAGCUCAACACACCUUGGCAAAGUGGCUGUGGCAAGACUGCC [G5C G17C G19U U38A] the self-cleavage was 0.04.

From the RNAGym collection of RNA variant scans (doi:10.7554/elife.90254)
